The whole screen tested about 230,000 compounds, of which fewer than 10 were called active. Inconclusive results, whose numbers are uncertain, are shown with a selection of clear calls. Calls follow the shape of the dose curve; as a rule, active = well fitted curve in the direction sought with a large enough effect; inconclusive = small, poorly fitted or top-dose-only effect, or effect the other way, or another doubt; inactive = no such curve, though single readings can be large or run the other way. No potency is given beside an inconclusive call; the fits are too rough.
These molecules were tested against Runt-related transcription factor 1 (Homo sapiens) + Core-binding factor subunit beta (Homo sapiens) (UniProt Q01196+Q13951) (assay: qHTS Assay for Compounds Blocking the Interaction Between CBF-beta and RUNX1 for the Treatment of Acute Myeloid Leukemia). Conditions: AlphaScreen CBFb-His/RUNX1-biotin binding, biochemical; activity, negative = inhibition: at 59.8 µM (top of the series) unless noted.
How it was run: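 His-tagged CBF-beta and biotinylated RUNX1 (30 nM each) were premixed 20 min at room temperature, exposed to compound for 15 min, then given nickel-chelate and streptavidin AlphaScreen beads (50 ng each). After 90 min, AlphaScreen signal was read.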
For activity, negative = inhibition in this document: % of control where 0% means no effect.

UniProt Q01196, sequence (Q01196 whole entry, looked up): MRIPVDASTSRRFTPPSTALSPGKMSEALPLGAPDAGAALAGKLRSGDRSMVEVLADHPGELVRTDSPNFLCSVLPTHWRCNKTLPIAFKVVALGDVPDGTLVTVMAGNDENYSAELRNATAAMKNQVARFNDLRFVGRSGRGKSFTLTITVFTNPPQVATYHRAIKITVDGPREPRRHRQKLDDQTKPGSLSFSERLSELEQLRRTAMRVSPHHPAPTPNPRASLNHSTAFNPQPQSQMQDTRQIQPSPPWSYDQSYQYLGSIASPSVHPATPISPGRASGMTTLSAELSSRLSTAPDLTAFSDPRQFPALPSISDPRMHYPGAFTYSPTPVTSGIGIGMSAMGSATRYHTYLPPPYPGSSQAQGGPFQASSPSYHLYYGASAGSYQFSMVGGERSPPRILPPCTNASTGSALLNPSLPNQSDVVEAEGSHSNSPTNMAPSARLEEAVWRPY
UniProt Q01196, sequence (Q13951 whole entry, looked up): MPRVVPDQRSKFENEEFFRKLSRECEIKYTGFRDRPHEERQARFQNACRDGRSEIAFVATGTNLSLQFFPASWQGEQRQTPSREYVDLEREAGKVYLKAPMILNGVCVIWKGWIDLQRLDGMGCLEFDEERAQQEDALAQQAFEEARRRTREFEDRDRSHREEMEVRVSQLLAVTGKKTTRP

Row | SMILES | Potency | activity, negative = inhibition
1 | Cc1ccc(C(=O)NC(=S)NCCCN2CCOCC2)cc1 | inconclusive [activator, single point] | –
2 | CC(=O)c1ccc(NC(=O)COC(=O)c2ccccc2Sc2ccccc2C#N)cc1 | inactive | –
3 | CCOC(=O)C1CCN(CCC(=O)Nc2cccc(Cl)c2C)CC1 | inconclusive [inhibitor, single point] | –
4 | CCOC(=O)c1sc2nc3c(SCC(=O)O)cc(C(=O)c4ccccc4O)cn3c(=O)c2c1C | inconclusive [activator, full curve] | –
5 | Cc1cc(NC(=O)/C=C/c2cccc(Cl)c2)n(-c2nc3ccccc3[nH]2)n1 | inactive | –
6 | Cc1cc(Br)c(OCc2ccc(C(=O)N/N=C3\CC4CC=CC34)cc2)c(Br)c1 (stereo unspecified) | inactive | –
7 | Cc1cc[n+](-c2[nH]c(=O)sc2/C=N/N=C(\[O-])c2ccccc2)cc1 | inconclusive [inhibitor, full curve, poor fit] | –
8 | CC1CCN(c2oc(Cc3cccc4ccccc34)nc2C#N)CC1 | inconclusive [inhibitor, partial curve] | –
9 | Cc1nc(N/N=C/c2ccccn2)sc1C | inconclusive [inhibitor, partial curve, poor fit] | –
10 | COc1ccc(C(=O)Nc2ccc3c4c(cccc24)CC3)cc1 | inactive | –
11 | Cc1cc(NC(=O)c2cc([N+](=O)[O-])cc([N+](=O)[O-])c2)n(-c2ccccc2)n1 | inactive | –
12 | N#Cc1c(N2CCOCC2)nc(-c2ccco2)c2c1CCCC2 | inconclusive [activator, partial curve] | –
13 | CCOC(=O)c1c(NC(=O)C2(C)Cc3ccccc3C(=O)O2)sc2c1CCCC2 (stereo unspecified) | inconclusive [activator, single point] | –
14 | O=[N+]([O-])c1ccccc1C1Nc2cccc3cccc(c23)N1 | inconclusive [inhibitor, full curve, poor fit] | –
15 | O=C(Cn1cnc2c(nnn2Cc2ccccc2)c1=O)NCc1ccco1 | inactive | –
16 | CC(C)(C)c1ccc(NC(=S)NCc2cccnc2)cc1 | inconclusive [inhibitor, single point] | –
17 | C/C(=N\NC(=O)CSc1nnc(C)s1)c1ccc(Cl)cc1 | inactive | –
18 | COc1ccc(CCN(C)CCCC(C#N)(c2cc(OC)c(OC)c(OC)c2)C(C)C)cc1OC (stereo unspecified) | inconclusive [activator, partial curve] | –
19 | COc1ccccc1CNC(=O)c1cn(C)c2ccc(S(=O)(=O)N3CCCCC3)cc2c1=O | inactive | –
20 | COc1ccccc1Nc1nc(N)nc(-c2cc3ccccc3o2)n1 | inconclusive [inhibitor, partial curve] | –
21 | O=C(/C=C/c1ccco1)NC(=S)Nc1ccc(Cl)cn1 | inconclusive [inhibitor, single point] | –
22 | Cc1ccccc1Nc1nc(CSc2nnc(-c3ccoc3C)n2C)cs1 | inconclusive [inhibitor, single point] | –
23 | COc1cccc(N2C(=O)NC(=O)/C(=C/c3ccc([N+](=O)[O-])s3)C2=O)c1 | inconclusive [inhibitor, single point] | –
24 | S=C(Nc1ccc(Nc2ccccc2)cc1)NC1CCCCCC1 | inconclusive [inhibitor, single point] | –

Row | SMILES | Potency | activity, negative = inhibition
25 | Fc1cccc(C[n+]2csc3ccccc32)c1 | inconclusive [inhibitor, single point] | –
26 | CSc1nsc(/C=C/Nc2ccc(O)cc2C)c1C#N | inconclusive [inhibitor, single point] | –
27 | CCC(=O)[C@@]1(O)C(=O)N2C(=C3C(=O)OCCC31)N(Cc1ccccc1)C(C)=C(C(=O)OC)C2c1ccccc1 (stereo partly specified) | – | inactive: 4.18% [at 13.1 µM]
28 | Oc1ccc(-c2cn3c(n2)SCC3)cc1O | inconclusive [inhibitor, full curve, poor fit] | –
29 | CCOC(=O)c1ccc(N2N=C(C)/C(=C/C=C/c3ccco3)C2=O)cc1 | inconclusive [inhibitor, partial curve] | –
30 | CCOC(=O)N/N=C/C=C/c1ccccc1 | inconclusive [inhibitor, partial curve] | –
31 | Cc1cc(C(=O)OCC(=O)N2CC(=O)Nc3ccccc32)c(C)n1-c1ccc(F)cc1 | inconclusive [inhibitor, partial curve] | –
32 | N#Cc1c(N2CCN(C(=O)c3ccccc3)CC2)nc(-c2ccccc2)c2c1CCCC2 | inconclusive [activator, partial curve] | –
33 | CC(=O)Oc1ccc(N2C(=O)C3C(C2=O)C2C=CC3C23CC3)cc1[N+](=O)[O-] (stereo unspecified) | inactive | –
34 | CC(=O)c1ccc(NC(=O)c2ccc3nc(-c4ccco4)c(-c4ccco4)nc3c2)cc1 | inconclusive [inhibitor, single point] | –
35 | COc1ccccc1OCCOCCOc1ccc(C)cc1Br | inconclusive [activator, single point] | –
36 | Cc1ccc(C(=O)COC(=O)c2cccs2)cc1 | inconclusive [activator, single point] | –
37 | [C-]#[N+]c1cc(-c2ccncc2)c(C)[nH]c1=O | inactive | –
38 | COc1ccc(S(=O)(=O)NC2CC(C)(C)NC(C)(C)C2)cc1C(C)C | inconclusive [activator, partial curve] | –
39 | O=C(/C=C/c1ccc(O)c(O)c1)OCCc1ccccc1 | inconclusive [inhibitor, full curve, poor fit] | –
40 | CNC(=O)CS(=O)CC(=O)Nc1cc(OCCOC)c(Cl)cc1Cl (stereo unspecified) | inactive | –
41 | CCN(CC)S(=O)(=O)c1ccc(N2CCOCC2)c(NS(=O)(=O)c2cc(C(C)(C)C)ccc2C)c1 | inactive | –
42 | Cc1ccc(SCC2=NNC(=O)C2)cc1 | inconclusive [inhibitor, single point] | –
43 | CCCC(=O)N1CCN(c2ccc(NC(=O)c3ccc([N+](=O)[O-])o3)cc2Cl)CC1 | inactive | –
44 | COc1ccc(C2=NOC(C(=O)Nc3cccnc3)C2)cc1OC (stereo unspecified) | inconclusive [activator, partial curve, poor fit] | –
45 | CN(CC(=O)Nc1ccc(F)cc1[N+](=O)[O-])Cc1ccccc1 | inconclusive [inhibitor, partial curve] | –
46 | O=C(NCc1ccc(Cl)cc1)c1cccnc1 | inactive | –
47 | C[C@@H](c1ccccc1)N1C(=O)[C@H]2[C@H]3[C@H](O)[C@H](O)C/C(=N/NC(=O)OCc4ccccc4)[C@H]3CC[C@@H]2C1=O | – | inactive: -14.1% [at 13.1 µM]
48 | CCN(CCCNC(=O)COc1cc(=O)n(CC)c2ccccc12)c1ccccc1 | inactive | –

Row | SMILES | Potency | activity, negative = inhibition
49 | C[N+](C)(C)CC[N+]1(C)Cc2c(Cl)c(Cl)c(Cl)c(Cl)c2C1 | inactive | –
50 | COc1cc(CNCc2ccccn2)ccc1OCC(=O)NC(C)(C)C | inconclusive [inhibitor, partial curve] | –
51 | O=C(/C=C\c1ccco1)Nc1ccc(N2CCN(C(=O)c3ccccc3)CC2)cc1 | inactive | –
52 | COc1ccc(CC(=O)O/N=C(\N)c2ccc(C)cc2)cc1 | inconclusive [activator, single point] | –
53 | CCOc1cc2c3c(c1)C1(Nc4ccccc4S1)C(=O)N3C(C)(C)CC2C (stereo unspecified) | inconclusive [inhibitor, single point] | –
54 | O=C(COc1cccnc1[N+](=O)[O-])c1ccc(Cl)s1 | inconclusive [inhibitor, full curve] | –
55 | Cc1ccc(C(=O)NNC(=O)CSc2nnc3c(n2)[nH]c2ccc(C)cc23)cc1 | inactive | –
56 | CC(=O)Nc1ccc(S(=O)(=O)NNC(=O)c2cccc(Cl)c2)cc1 | inactive | –
57 | CC(Sc1nc(NC(C)(C)C)nc(N(C)C)n1)C(=O)Nc1ccccc1 (stereo unspecified) | inactive | –
58 | CC(=O)C1=NN(c2ccccc2)C(c2ccc3c(c2)OCO3)N1c1ccccc1 (stereo unspecified) | inconclusive [activator, partial curve] | –
59 | CN(C)c1ccc(/C=C2/C(=O)NC(=O)N(Cc3ccco3)C2=O)cc1 | inconclusive [inhibitor, single point] | –
60 | O=C(O)/C=C/C(=O)NNC(=O)c1ccccc1Br | inactive | –
61 | CCOC(=O)c1ccccc1OC(=O)CS(=O)c1ccccc1[N+](=O)[O-] (stereo unspecified) | inactive | –
62 | O=C(N/N=C/C=C/c1ccc([N+](=O)[O-])cc1)c1cccs1 | inactive | –
63 | Cn1c(CCc2nc3ccccc3[nH]2)nnc1SCC#N | inconclusive [activator, partial curve] | –
64 | C=CCc1cc(C)ccc1OCCCC(C(=O)OCC)C(=O)OCC | inconclusive [activator, partial curve] | –
65 | O=C(c1ccc(N2C(=O)C3CC=C(Cl)CC3C2=O)cc1)N1CCCCC1 (stereo unspecified) | inactive | –
66 | Cc1ccc(NC(=O)c2cc(-c3ccco3)nc3ccccc23)cc1S(=O)(=O)N1CCOCC1 | inconclusive [inhibitor, single point] | –
67 | N#CC(C#N)=Cc1ccc(O)cc1 | inactive | –
68 | COc1ccc(OC)c(/C=C/C(=O)OCC(=O)Nc2cccc(C(C)=O)c2)c1 | inconclusive [activator, partial curve, poor fit] | –
69 | O=C(CNC(=O)c1ccccc1F)N/N=C/c1cc(Br)ccc1OC(=O)/C=C/c1ccco1 | inconclusive [inhibitor, single point] | –
70 | COc1cccc(NC(=S)NCc2ccc3c(c2)cc(C)n3C)c1 | inconclusive [inhibitor, partial curve] | –
71 | Cc1cccc(/C(N)=N/OC(=O)Cc2cccc3ccccc23)c1 | inconclusive [activator, partial curve] | –

Reference: PubChem BioAssay AID1477 (National Center for Advancing Translational Sciences (NCATS), 2009)
